Measurements reported in paper PMC4336329 (PLoS ONE, 2015).
In all, about 310,000 compounds went through this assay and about 2,200 (0.71%) showed an effect of 50% or more. Effects have a minus sign here. The list shows a part of the results.

The molecules below were run against human ether-à-go-go-related gene (hERG) potassium channel (human, UniProt Q12809) (assay: primary screen, population patch clamp on CHO cells stably expressing hERG).
Sequence of human ether-à-go-go-related gene (hERG) potassium channel (Q12809 whole entry, looked up): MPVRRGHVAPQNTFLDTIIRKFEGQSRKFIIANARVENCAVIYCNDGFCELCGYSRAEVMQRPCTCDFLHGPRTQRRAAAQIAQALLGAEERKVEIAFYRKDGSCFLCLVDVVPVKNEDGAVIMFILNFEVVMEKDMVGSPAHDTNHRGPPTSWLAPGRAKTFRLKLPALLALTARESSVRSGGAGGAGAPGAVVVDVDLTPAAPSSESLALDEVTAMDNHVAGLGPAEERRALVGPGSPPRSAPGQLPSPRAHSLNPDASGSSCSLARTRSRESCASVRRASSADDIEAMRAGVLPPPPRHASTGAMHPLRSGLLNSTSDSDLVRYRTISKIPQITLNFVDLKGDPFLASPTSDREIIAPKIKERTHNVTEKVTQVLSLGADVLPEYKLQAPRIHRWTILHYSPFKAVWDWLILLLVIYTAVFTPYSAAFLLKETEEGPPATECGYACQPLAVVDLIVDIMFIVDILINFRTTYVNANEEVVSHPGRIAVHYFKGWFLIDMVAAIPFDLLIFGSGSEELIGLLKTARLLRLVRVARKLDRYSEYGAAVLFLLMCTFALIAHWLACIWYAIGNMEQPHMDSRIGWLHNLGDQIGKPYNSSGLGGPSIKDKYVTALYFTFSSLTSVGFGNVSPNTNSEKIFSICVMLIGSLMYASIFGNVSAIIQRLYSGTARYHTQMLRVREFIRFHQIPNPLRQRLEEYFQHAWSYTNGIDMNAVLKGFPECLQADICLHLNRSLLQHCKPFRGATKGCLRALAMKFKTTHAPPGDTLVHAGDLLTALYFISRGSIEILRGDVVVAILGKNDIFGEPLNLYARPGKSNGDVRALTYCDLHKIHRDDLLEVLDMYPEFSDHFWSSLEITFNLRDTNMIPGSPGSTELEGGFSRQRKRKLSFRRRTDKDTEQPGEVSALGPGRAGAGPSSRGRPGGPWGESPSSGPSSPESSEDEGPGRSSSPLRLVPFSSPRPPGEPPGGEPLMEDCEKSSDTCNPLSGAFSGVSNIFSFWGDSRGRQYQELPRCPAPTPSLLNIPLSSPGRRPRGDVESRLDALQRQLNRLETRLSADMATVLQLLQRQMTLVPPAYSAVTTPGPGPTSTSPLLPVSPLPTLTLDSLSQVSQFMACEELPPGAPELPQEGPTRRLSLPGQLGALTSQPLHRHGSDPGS

Compound | hERG current change (%, negative = inhibition) at 1uM [%]
CCOc1cc(C(=O)N2CCN(c3ccc(C(C)=O)cc3)CC2)cc(OCC)c1OCC | -8.84
CCOc1cccc(CN2CCC(n3nccc3NC(=O)C3CCCC3)CC2)c1 | -42.6
CSc1ccc(/C=C(/NC(=O)c2ccc(C)cc2)C(=O)Nc2cccc(F)c2)cc1 | 13.5
CC(CC(=O)NC1CCCC1)c1ccccc1 (stereo not shown) | -0.0392
CCOC(=O)N1CCC(NC(=O)C2CCCN(c3nc4ccccc4o3)C2)CC1 (stereo not shown) | -8.44
O=C(CCn1nnc2ccccc21)N/N=C\Cc1ccccc1 | 8.76
CCCCOc1ccc(C(NC(=O)OCC)NC(=O)OCC)cc1 | 15.2
COc1ccc(CCNC(=O)C2(C)CCC(=O)N2CCC(C)C)cc1OC (stereo not shown) | -7.9
Cc1cc(C)c2c(c1)C(=O)/C(=C/c1ccc(C(=O)O)cc1)CC2 | 16.6
COC(=O)c1cc(S(=O)(=O)NCC2CCN(Cc3ccc(Cl)cc3)CC2)c[nH]1 | -59.6
CC(=O)NC1N=C(C)N(c2ccccc2)C1=O (stereo not shown) | -2.75
Cc1nnc(SCC(=O)Nc2ncc(Cl)cc2Cl)n1Cc1ccccc1 | -0.0814
CCOc1ccccc1C(=O)NCCc1cnc[nH]1 | 14.7
Cc1ccc(Cl)cc1NC(=O)COC(=O)CC1CCCCC1 | 13.7
Cc1ccc(CN2CCN(CCC(C)C)C(CCO)C2)s1 (stereo not shown) | -1.86
Cc1ccc(CNC(=S)NCc2ccncc2)cc1 | -6.94
O=C(NCc1ccccc1)c1nc(S(=O)(=O)Cc2ccccc2)ncc1Cl | 9.48
COc1ccc(OC)c(C(c2nnnn2CCc2ccccc2)N2CCN(c3ccccc3)CC2)c1 (stereo not shown) | 0.508
O=C(O)CCCN1C(=O)/C(=C/c2ccc(-c3nc4ccccc4s3)o2)SC1=S | 16.2
COc1ccc(NC(=O)CC2C(=O)N(c3cccc(OC)c3)C(=O)N2C(C)C)cc1 (stereo not shown) | -4.65
Cc1nnc(SCC(=O)Nc2ccc3c(c2)OCCO3)n1CC1CCCO1 (stereo not shown) | 0.653
COC(=O)c1cccc(S(=O)(=O)N2CCCCC2)c1 | 0.121
COc1cccc(C2=CC(c3cccc(OC)c3OC(F)F)n3nnnc3N2)c1 (stereo not shown) | 11.2
CC1CCN(C(=O)COC(=O)c2ccc(F)c(S(=O)(=O)N3CCOCC3)c2)CC1 | 22.9
COc1ccc(/C=N/Nc2ncnc(Cl)c2N)cc1OC | 8.48
